Assay results published in patent US20250295802A1, “HER3 ANTIBODY-DRUG CONJUGATE AND USE THEREOF” (DUALITY BIOLOGICS (SUZHOU) CO., LTD., priority 2022, published 2025).

How the values were obtained:
His-HER3 = target: T1, His-HER3 (Homo sapiens, UniProt P21860); assay: Binding kinetics by Biacore (SPR); details: antibody as ligand, analyte His-HER3, Biacore T200
T1 construct: His
Protocol: Affinity assay by surface plasmon resonance (SPR): antibody kinetics and affinity were determined using Biacore T200. Briefly, the recombinant human HER3 antibody was immobilized on a protein A chip (GE, Cat. 29-1275-5). The antigen concentration, from 50 nM to a final concentration of 0.78125 nM, was generated by 2-fold serial dilution, and affinity and kinetics were determined through the chip.
The binding affinity of humanized 3F8 (hu3F8) and chimeric 3F8. Binding kinetics of 3 humanized 3F8 clones and chimeric 3F8 were determined by Biacore. Three humanized 3F8 clones (clone 1, clone 2 and clone 3) had different heavy chains and one identical light chain. Clone 1, clone 2, and clone 3 corresponded to hu3F8-1, hu3F8-2, and hu3F8-3, respectively.
All data listed in Table 6 were processed using Biacore T200 evaluation software version 3.1.

HER3 [1] = target: T2, HER3 (Homo sapiens, UniProt P21860); assay: ELISA binding affinity after incubation at pH 3.5 (acid stress)
T2 construct: human Fc (huFc)
Protocol: (§1) ELISA assay: human HER2-ex-huFc, human HER3-huFc, and human EGFR-his were diluted to 2 μg/mL and 50 μL/well in a 96-well plate and incubated at 4° C. overnight. The plate was washed with 0.5×PBST, then incubated with 100 μL of a blocking buffer (PBS+3% BSA) at 37° C. for 2 h, and washed with 0.5×PBST. The 3F8 antibody was diluted with the blocking buffer in a 1:3 serial gradient, added at 50 μL/well, incubated at 37° C. for 40-50 min, and then washed with 0.5×PBST. Goat anti-mouse IgG-HRP (Southern Biotech, 1030-05) was diluted at 1:20000 with the blocking buffer, added at 50 μL/well, incubated in the dark for 30 min, and then washed with 0.5×PBST. Prior to assay, 50 μL of luminol buffer A+B was added to each well in a 1:1 mix.
(§2) Antibody stability test: the purified antibody at 5 mg/mL was stored at 4° C. as regular practice, incubated at 40° C. for 7 days and 14 days for heat stability evaluation, transferred to a glycine solution at pH 3.5 for regeneration, and stored for 2, 4 and 6 h for acid stability evaluation, or subjected to repeated freeze-thaw treatments for 4 or 6 cycles for freeze-thaw stability evaluation. Aggregation was measured by SEC-HPLC, and binding affinity was determined by ELISA.
Three clones of hu3F8 were incubated at pH 3.5 for 0, 2, 4 and 6 h, and then subjected to ELISA to measure the binding affinities.
EC50 assay of the three clones of hu3F8 after 0, 2, 4, and 6 h of incubation at pH 3.5. EC50 was determined by ELISA.

HER3 [2] = target: T2, HER3; assay: ELISA binding affinity after incubation at 40° C. (heat stress)
Protocol: as §1, §2
The three clones of hu3F8 were incubated at 40° C. for different times and then subjected to ELISA to determine the binding affinities. The chimeric antibody was subjected to parallel assay.
EC50 assay of the three clones of hu3F8 incubated at 40° C. for different times. The three humanized 3F8 antibody clones were incubated in normal saline at 40° C. for 7 or 14 days, and the binding affinities after heat stress test were determined by ELISA. The chimeric antibody 3F8 was subjected to parallel assay.

HER3 [3] = target: T2, HER3; assay: ELISA binding affinity after repeated freeze-thaw
Protocol: as §1, §2
Three clones of hu3F8 were freeze-thawed for 3 or 5 cycles, and then subjected to ELISA to measure the binding affinities. The chimeric antibody was subjected to parallel assay.

[4] = Aggregation by SEC-HPLC after stress test; assay type: physicochemical
Protocol: as §2
Aggregations of 3 clones of hu3F8 after stability test and their aggregation evaluations on storage at 4° C. Aggregations of the three hu3F8 antibodies after acid treatment, repeated freeze-thaw and incubation at 40° C. were determined by SEC-HPLC and compared to each of the antibodies stored at 4° C. All the clones retained more than 95% of monomer after stress test, indicating little tendency to aggregate.

MDA-MB-453 cells = assay: Internalization of antibody-drug conjugates with pHrodo in MDA-MB-453 cells; assay type: cell-based; details: 10 nM
Protocol: The up-taken of the antibody-drug conjugate of the present application against the HER3 target on MDA-MB-453 cells expressing HER3 was detected. The cell, the antibody-drug conjugate (ADC) with a fixed concentration, and an internalization indicating reagent pHrodo were co-incubated, and the endocytosis capacity of the antibody-drug conjugate was evaluated by observing the number of fluorescent signal bright dots generated by pHrodo which entered the cell along with the antibody-drug conjugate in the cell at different time points.
• 1. Cell culture: MDA-MB-453 cells were cultured using a 10% FBS Leibovitz's L-15 medium. • 2. Cell preparation: MDA-MB-453 cells in logarithmic phase were taken, washed with PBS once, and digested with 2-3 mL of Versene for 2-3 min. After the cells were digested completely, 10-15 mL of cell culture was added to elute the digested cells. The eluate was centrifuged at 1000 rpm for 5 min, and the supernatant was discarded. The resulting cells were resuspended in cell culture to give a single cell suspension, which was adjusted to a viable cell density of […] cells/mL. • 3. Cell plating: the cell suspension was added to a 96-well cell culture plate at 50 μL/well. The culture plate was incubated in an incubator for 18 h (37° C., 5% CO2). • 4. Sample adding: the test antibody-drug conjugate was co-incubated with Fab-pHrodo to form a complex, adjusted to a concentration of 10 nM, and added to the cells at 50 μL/well. • 5. Culturing of cells: the culture plate was incubated in an incubator for 2, 4, 6, 24, or 48 h (37° C., 5% CO2). • 6. Plate reading: when the corresponding time point was reached, the 96-well cell culture plate was taken out, Hoechst33342 was added to perform cell nucleus staining, the plate was placed in operatta CLS for photographing, and the number of cells and the number of fluorescent bright dots in each cell were read. The average number of cell fluorescent dots was calculated using Harmony® imaging and analysis software.

[5] = Antibody stored at 4° C., SEC-HPLC

B1: Clone 1: humanized 3F8; heavy chain SEQ ID NO: 11, light chain SEQ ID NO: 12 (antibody)
heavy: QVQLQESGPGLVKPSETLSLTCTVSGYSITSAYYWNWIRQPPGKGLEWIGYISYDGRNNFNPSLKNRVTISVDTSKNQFSLKLSSVTAADTAVYYCARDGDYDYFDYWGQGTTVTVSS[human IgG1 constant region left out]
light: DIQMTQSPSSLSASVGDRVTITCRASQDISNYLNWYQQKPGKAPKLLIYYTSILHSGVPSRFSGSGSGTDYTFTISSLQPEDIATYFCQQGDTLPPTFGGGTKLEIKRTVAAPSVFIFPPSDEQLKSGTASVVCLLNNFYPREAKVQWKVDNALQSGNSQESVTEQDSKDSTYSLSSTLTLSKADYEKHKVYACEVTHQGLSSPVTKSFNRGEC
ka (His-HER3): 560000 M⁻¹ s⁻¹ | kd (His-HER3): 0.000612 s⁻¹ | EC50 after incubation at pH 3.5 (HER3 [1]; incubation time 0 hr): 38.74 ng/mL | EC50 after incubation at pH 3.5 (HER3 [1]; incubation time 2 hr): 38.11 ng/mL | EC50 after incubation at pH 3.5 (HER3 [1]; incubation time 4 hr): 40.89 ng/mL | EC50 after incubation at pH 3.5 (HER3 [1]; incubation time 6 hr): 38.96 ng/mL | EC50 after incubation at 40° C. (HER3 [2]; day 0): 0.03916 µg/mL | EC50 after incubation at 40° C. (HER3 [2]; day 7): 0.04235 µg/mL | EC50 after incubation at 40° C. (HER3 [2]; day 14): 0.041 µg/mL | EC50 after freeze-thaw stress (HER3 [3]; 0 freeze-thaw cycles): 0.04541 µg/mL | EC50 after freeze-thaw stress (HER3 [3]; 3 freeze-thaw cycles): 0.04429 µg/mL | EC50 after freeze-thaw stress (HER3 [3]; 5 freeze-thaw cycles): 0.03858 µg/mL | Dimer [4, 5]: 4.36% | Monomer [4, 5]: 94.68% | Tetramer [4, 5]: 0.96% | Dimer ([4]; Day 7 at 40° C.): 4.22% | Monomer ([4]; Day 7 at 40° C.): 95.02% | Tetramer ([4]; Day 7 at 40° C.): 0.76% | Dimer ([4]; Day 14 at 40° C.): 4.22% | Monomer ([4]; Day 14 at 40° C.): 95.03% | Tetramer ([4]; Day 14 at 40° C.): 0.75% | Dimer ([4]; Freeze-thaw for 3 cycles): 4.41% | Monomer ([4]; Freeze-thaw for 3 cycles): 94.63% | Tetramer ([4]; Freeze-thaw for 3 cycles): 0.96% | Dimer ([4]; Freeze-thaw for 5 cycles): 4.43% | Monomer ([4]; Freeze-thaw for 5 cycles): 94.69% | Tetramer ([4]; Freeze-thaw for 5 cycles): 0.88% | Dimer ([4]; pH 3.5 for 2 h): 4.41% | Monomer ([4]; pH 3.5 for 2 h): 94.63% | Tetramer ([4]; pH 3.5 for 2 h): 0.96% | Dimer ([4]; pH 3.5 for 4 h): 4.22% | Monomer ([4]; pH 3.5 for 4 h): 95.06% | Tetramer ([4]; pH 3.5 for 4 h): 0.73% | Dimer ([4]; pH 3.5 for 6 h): 4.29% | Monomer ([4]; pH 3.5 for 6 h): 94.80% | Tetramer ([4]; pH 3.5 for 6 h): 0.91%

B2: ADC-2-X1: anti-Her3 antibody hu3F8-3 conjugated with linker-payload X1, DAR 7.01 (conjugate)
heavy: QVQLQESGPGLVKPSETLSLTCTVSGYSITSAYYWNWIRQPFGKGLEWMGYISYDGRNNFNPSLKNRVSISRDTSKNQFSLKLSSVTAADTATYYCARDGDYDYFDYWGQGTTVTVSS[human IgG1 constant region left out]
light: DIQMTQSPSSLSASVGDRVTITCRASQDISNYLNWYQQKPGKAPKLLIYYTSILHSGVPSRFSGSGSGTDYTFTISSLQPEDIATYFCQQGDTLPPTFGGGTKLEIKRTVAAPSVFIFPPSDEQLKSGTASVVCLLNNFYPREAKVQWKVDNALQSGNSQESVTEQDSKDSTYSLSSTLTLSKADYEKHKVYACEVTHQGLSSPVTKSFNRGEC
Average number of fluorescence dots in cells (MDA-MB-453 cells; assay time 2 h): 1.4 | Average number of fluorescence dots in cells (MDA-MB-453 cells; assay time 4 h): 2.1 | Average number of fluorescence dots in cells (MDA-MB-453 cells; assay time 6 h): 2.5 | Average number of fluorescence dots in cells (MDA-MB-453 cells; assay time 24 h): 3.3 | Average number of fluorescence dots in cells (MDA-MB-453 cells; assay time 48 h): 3.5

B3: ADC-2-X2: anti-Her3 antibody hu3F8-3 conjugated with linker-payload X2, DAR 7.11 (conjugate)
heavy: QVQLQESGPGLVKPSETLSLTCTVSGYSITSAYYWNWIRQPFGKGLEWMGYISYDGRNNFNPSLKNRVSISRDTSKNQFSLKLSSVTAADTATYYCARDGDYDYFDYWGQGTTVTVSS[human IgG1 constant region left out]
light: DIQMTQSPSSLSASVGDRVTITCRASQDISNYLNWYQQKPGKAPKLLIYYTSILHSGVPSRFSGSGSGTDYTFTISSLQPEDIATYFCQQGDTLPPTFGGGTKLEIKRTVAAPSVFIFPPSDEQLKSGTASVVCLLNNFYPREAKVQWKVDNALQSGNSQESVTEQDSKDSTYSLSSTLTLSKADYEKHKVYACEVTHQGLSSPVTKSFNRGEC
Average number of fluorescence dots in cells (MDA-MB-453 cells; assay time 2 h): 1.4 | Average number of fluorescence dots in cells (MDA-MB-453 cells; assay time 4 h): 2.1 | Average number of fluorescence dots in cells (MDA-MB-453 cells; assay time 6 h): 2.6 | Average number of fluorescence dots in cells (MDA-MB-453 cells; assay time 24 h): 2.6 | Average number of fluorescence dots in cells (MDA-MB-453 cells; assay time 48 h): 3.9
